The supplement of paper PMC3334620
Over roughly 33,000 sequences, “E-score (-0.5 to 0.5)” has its median near -0.056; the highest 2% begin near 0.38. This is one part of the list.

molecular target: Stb4 (UniProt P50104); experiment: PBM E-score (8-mer binding enrichment) (E-score (-0.5 to 0.5)); higher = stronger / more preferred TF binding; most listed sequences are background and not binding sites; details: protein concentration: 200 nM; construct: GST-DNA-binding domain
Procedure, shortened: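 E-scores (a modified Wilcoxon-Mann-Whitney statistic) were assigned by the Universal PBM Analysis Suite to every ungapped eight-base word pooled with its reverse complement. The input came from universal all-10-mer Agilent arrays made double-stranded by primer extension and probed with GST-tagged yeast transcription factors at about 100-200 nM. Fluorescent anti-GST detected bound protein, and masliner normalised the scans.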

Sequence | PBM E-score
AAGCCGGT | 0.143
GCTGTGCA | -0.116
CCCCCCGC | -0.317
GGCAGGCC | 0.0456
GGCCAGCA | -0.0995
CAAAGGTG | -0.0692
CCCAATCC | 0.0104
CCATCAGC | -0.107
GGAGACAA | 0.061
CCAGGTTC | -0.067
AATCCTAT | 0.0532
GCGACCCA | -0.00585
CTTTCCTC | -0.132
AGAGGATA | -0.14
CCTGCCAG | -0.253
ACGTTCCG | 0.398
GTTCCGGA | 0.435
ATGATCCG | 0.397
AGTGGTAC | -0.164
AAAACGAC | -0.153
ATGCAGCG | -0.0375
AGAATAGG | -0.0437
GATACTGC | 0.0589
CACCGGGG | 0.0986

Sequence | PBM E-score
ATCTGAAA | -0.00451
AGACGTCC | -0.0946
CCCTGTAG | -0.0785
CCCACAAC | -0.171
CGGTGGGA | 0.1
CACTCGCA | -0.0492
AAAACTCT | -0.193
ATAGGCCA | 0.00114
AGCGTGCA | 0.0521
ATTCACTG | -0.187
CTAATGGC | -0.14
GCTGCTTA | -0.022
GACTAACC | -0.066
ACATAGTG | 0.0377
CCGTTTTA | 0.195
CCAATTGG | -0.214
GACAAGTA | -0.0988
ACAAACCG | 0.209
CGCTCGAA | -0.105
AGGTCCTG | -0.114
AGAGCTTC | 0.0854
AAACCACA | -0.0832
ACGAAACG | -0.107
TAGATAAA | -0.00785

Sequence | PBM E-score
CACTCAAC | -0.11
GGTGGATA | 0.0727
GTATCGTA | -0.237
GCCTACGA | 0.0698
ACCACGCC | 0.0296
TCGACCGA | 0.197
CAACCCCC | -0.24
CGGCCCGA | 0.444
CAAGTCCA | -0.306
CGAATAAG | 0.0389
CAACACGA | -0.167
AACGCAAG | -0.164
ACCGGGCG | 0.103
CAATTGGA | -0.112
ATGGTTTC | 0.0176
ATGCTAGC | 0.113
AGTACTGA | -0.0631
CAGACCGC | -0.0284
ACTATCAG | -0.182
AATCAGTC | -0.0412
CCAAAAAC | 0.236
AGATCTCG | 0.116
CACATTCA | -0.0985
AAGCAAGA | -0.196

Sequence | PBM E-score
ACCATTGA | -0.234
CTTATAGA | -0.148
GACAATCC | 0.206
TAAGTCAA | -0.261
CTTTATAC | 0.186
CAGACTCC | -0.108
CGCCAGAC | -0.174
ACAAGTAA | -0.237
GAATACCC | 0.341
AGATTAGA | -0.228
AAGTTCGT | -0.197
GAGCTGCA | 0.039
CCGTCATC | 0.158
ATGATTCA | -0.198
CGCGCCCC | 0.176
ATGACCTA | -0.112
ACTAATCT | -0.0738
ACACGATC | 0.084
CATCCGCC | 0.4
AGGCTGGA | -0.262
CTAAAATC | -0.12
TGAAATAA | -0.0566
